From PubChem BioAssay AID1346428 (National Center for Advancing Translational Sciences (NCATS), 2018)
Among all 48,000 compounds or so, about 1,200 (2.5%) were called active. Not shown: some 2% with an inconclusive outcome.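 The calls were made as follows: active = activation of at least 60% and not above a set upper limit (about 1 call in 100 departs from these limits); inconclusive = activation of 40% to 60%, or above that upper limit; inactive = activation under 40%.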 The list shows a part of the results.

Molecular target: Probable G-protein coupled receptor 32 (Homo sapiens) (UniProt O75388)
Sequence of UniProt O75388 (O75388 whole entry, looked up): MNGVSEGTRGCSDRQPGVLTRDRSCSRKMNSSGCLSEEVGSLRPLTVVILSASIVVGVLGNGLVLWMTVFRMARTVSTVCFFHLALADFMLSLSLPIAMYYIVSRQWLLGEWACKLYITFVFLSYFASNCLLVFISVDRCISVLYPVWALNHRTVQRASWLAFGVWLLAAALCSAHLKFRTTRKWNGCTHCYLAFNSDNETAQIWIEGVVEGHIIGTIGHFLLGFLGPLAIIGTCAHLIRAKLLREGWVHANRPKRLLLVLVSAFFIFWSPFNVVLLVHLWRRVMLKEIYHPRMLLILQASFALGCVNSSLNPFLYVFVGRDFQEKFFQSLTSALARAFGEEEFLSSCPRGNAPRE
Test: qHTS for Agonists of Human Resolvin D1 Receptor DRV1; also: 0% is about no effect
Conditions: CHO-K1 GPR32 beta-arrestin PathHunter luminescence, 90 min; at 76.9 µM; active compounds read high; zero percent set by DMSO-only wells
Summary of the method: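 Engineered CHO-K1 line co-expressing GPR32-ProLink and EA-beta-arrestin. Compound treatment lasted 90 min at 37 °C. Luminescence was recorded after 1 h with substrate at ambient temperature, relative to DMSO basal wells.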

activation, active:
Cc1oc(-c2ccccc2)nc1CNS(=O)(=O)c1ccc(Cl)cc1 115%, O=C(Nc1nnc(S(=O)(=O)N2CCOCC2)s1)c1cccc(Br)c1 93.4%, CCCCC(=O)N1CCN(c2nc3c(C)c(C)ccc3s2)CC1 69.1%

activation, inactive:
CCCCOc1ccccc1NC(=O)Cn1c(-c2cncs2)nc2ccccc21 -12.7%, O=C(NC1CC(=O)N(c2ccccc2)C1)c1cc2ccccc2o1 (centres undefined) -2.04%, CCOc1ccc(-c2cc(C(=O)NCc3ccc(OC)cc3)c3c(-c4ccc(F)cc4)[nH]nc3n2)cc1 -14.5%, CCCOc1ccc(NC(=O)CC2C(=O)N(c3cccc(C)c3)C(=O)N2CCc2ccncc2)cc1 (centres undefined) -21.8%, CN1CCN(Cc2c(O)ccc3cc(-c4ccccc4)c(=O)oc23)CC1 3.68%, COc1ccc(Nc2nc3c(S(=O)(=O)c4ccccc4)nnn3c3ccc(Cl)cc23)cc1OC 4.02%, CCOC(=O)c1cccc(NC(=O)c2cc3c(=O)n(Cc4cccnc4)ccc3nc2C)c1 -7.91%, Cc1cccc(-c2nc(N3CCN(c4ccc(F)cc4)CC3)c3ccccc3n2)c1 3.35%, CCc1ccc(C(=O)c2cn(CC(=O)Nc3ccc(OC)cc3)c3cc4c(cc3c2=O)OCCO4)cc1 23.9%, O=C(Nc1ccc(OC(F)(F)F)cc1)C(NS(=O)(=O)c1cccc2nsnc12)c1ccccc1 (centres undefined) -25.6%, O=C(O)CCCn1cc(NC(=O)COc2ccccc2F)cn1 -1.3%, Cc1ccc(C)c(N2CCN(C(=O)c3cccn4c(=O)c5ccccc5nc34)CC2)c1 1.4%, CC(C)C[C@@H](N)C(=O)O -10.7%, CCCCOC(=O)c1ccc(NC(=O)c2cc(=O)c3ccccc3o2)cc1 -3.34%, Cc1cc(SCC(=O)Nc2ccc(C(F)(F)F)cc2)nc(=O)[nH]1 18.5%, CCOc1ccc(NC(=O)c2ncn(-c3ccccc3)n2)cc1 12.2%, Cc1ccc(-c2nnn3c2nc(N2CCC(C)CC2)c2ccccc23)cc1 26.3%, Cc1ccc(OCCSc2nc3ccccc3n2CC(=O)NC(C)C)cc1 -1.24%, O=C1CSC2(C(=O)N(Cc3c(F)cccc3Cl)c3ccccc32)N1c1ccc(F)c(F)c1 (centres undefined) -8.44%, O=C(CSc1ncc2c(n1)-c1cc(Cl)ccc1N(Cc1ccccc1)S2(=O)=O)NCc1ccccc1 -21.9%, Cc1ccc(C(=O)Nc2nnc(S(=O)(=O)N3CCCc4ccccc43)s2)cc1 28.5%, CCOc1ccc(S(=O)(=O)NCCc2csc3nc(-c4cccc(C)c4)nn23)cc1 3.28%, Fc1ccc(Nc2c(-c3c[nH]c4ccccc34)nc3ccccn23)cc1 11.5%, Cc1cccc(CSc2ccc3nnc(CCNS(=O)(=O)c4ccccc4)n3n2)c1 -29.3%, COCCCNC(=O)C1CCN(C(=O)c2cc3sccc3n2Cc2ccc(Cl)cc2)CC1 2.5%, COc1ccc(CCNC(=O)c2ccc(CSCc3ccc(C)cc3)o2)cc1OC 11.5%, COc1ccc(C(=O)Nc2ccc3nc(N4CCCCC4)cc(C)c3c2)cc1OC -13.2%, Cc1nc2c(C(=O)NCCc3ccccc3)c[nH]n2c(=O)c1Cc1ccccc1F 18%, COc1cccc(C(=O)Nc2ccc(C(=O)OCc3cc(=O)n4cc(C)sc4n3)cc2)c1 -23.7%, O=S(=O)(c1ccc(Cl)cc1)N1CCC(c2ccncc2)CC1 -3.68%, COc1cc(NS(=O)(=O)c2cc3c(cc2C)n(C)c(=O)c(=O)n3C)cc(OC)c1 7.57%, Cc1ccc(-c2cc3ncc4c(n3n2)-c2ccccc2OC4)cc1 -2.01%, CCC(Sc1ccc2nnc(CCNS(=O)(=O)c3ccc(OC)cc3)n2n1)C(=O)OC (centres undefined) -16%, COc1cc(NC(=O)c2cc3cc4ccc(OC)c(Cl)c4nc3s2)cc(OC)c1 -19.2%, COc1cc(NC(=O)NCCn2nnc3cc(S(=O)(=O)N(C)C)ccc32)cc(OC)c1OC -5.47%, Cc1cc(C)cc(NC(=O)CSc2nc3c(cnn3-c3ccc(F)cc3)c(=O)[nH]2)c1 -4.8%, Cc1nc2ccc(S(=O)(=O)NCC(=O)Nc3ccc(C)c(Cl)c3)cc2s1 -4.76%, Cc1ccccc1C(=O)NC1(C(F)(F)F)C(=O)Nc2c1c(=O)[nH]c(=O)n2CCc1ccccc1 (centres undefined) 0.93%, COc1ccc(-c2nc3c4ccccc4n(CC(=O)Nc4ccc(C(C)=O)cc4)c(=O)n3n2)cc1 7.47%, Cc1cccc(NC(=O)CN(C)S(=O)(=O)c2cnc[nH]2)c1C 11.3%, Cc1ccc(Cl)cc1NC(=O)c1cc(-c2ccc3c(c2)OCCO3)on1 4.24%, O=C(Cc1ccc(NC(=O)N2CCCCc3ccccc32)cc1)Nc1ccccc1Br -1.25%, Cc1cc(C)c(NC(=O)CN2C(=O)CCn3nc(-c4cccn4C)cc32)c(C)c1 -3.84%, Cc1ccc(-n2ncc(C(=O)NCCCN3CCN(C)CC3)c2C2CCN(C(=O)OC(C)(C)C)CC2)cc1 -2.65%, Cc1ccccc1CN1c2ccccc2-c2nc(SCC(=O)Nc3cc(F)ccc3F)ncc2S1(=O)=O 17.4%, CCCCNc1cc(N2CCN(C3CCCCC3)CC2)c2noc3c2c1C(=O)c1ccccc1-3 -6.69%, Cc1cc(C)c(NC(=O)CSc2cn(CC(=O)N3CCOCC3)c3ccccc23)c(C)c1 -14.8%, CCOc1ccc(NC(=O)c2oc3ccccc3c2NC(=O)Cc2cccs2)cc1 6.06%, CCN1CCN(C(=O)c2ccc3c(c2)N(Cc2ccc(Cl)cc2)C(=O)c2ccccc2S3=O)CC1 (centres undefined) 0.619%, CCc1ccc(Cn2c(CNS(=O)(=O)c3ccc4c(c3)CCCC4)nc3cccnc32)cc1 -35.2%, Cc1cc(C)c2c(n1)SCC(=O)N2CC(=O)Nc1cccc(C)c1C -19.2%
